# Measurements as given in PubChem BioAssay (Tox21).
# Inconclusive results, whose numbers are uncertain, are shown with a selection of clear calls. Potencies of inconclusive entries are left out as doubtful fits. Active and inactive are the calls of the source. Calls come from the whole dose curve; as a rule, active = well fitted curve in the direction sought with a large enough effect in the repeat runs; inconclusive = weak or mixed curves; inactive = no such curve, though single readings can be large; an effect the other way counts as inactive or inconclusive.
# Assays:
# [1] = qHTS RealTime-Glo MT Cell Viability Assay in HepG2 cells - 8 hour (AID 1224873); note: nearly all actives have a fitted effect of over 55% in size
# In short: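 HepG2 cells (600/well) mixed with RealTime-Glo MT reagent, settled 5 h at 37 C/5% CO2 before compound addition. Nonlytic NanoLuc luminescence from viable-cell prosubstrate reduction read repeatedly during 40 h treatment at 37 C.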
# [2] = qHTS RealTime-Glo MT Cell Viability Assay in HEK293 cells - 16 hour (AID 1224872); note: nearly all actives have a fitted effect of over 50% in size
# In short: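 Luminescence generated by NanoLuc from substrate produced by living HEK293 cells served as the viability signal. Each value reflects the reading at its stated time point during continuous 40 h compound exposure at 37 C.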
# [3] = A CellTox Green Cytotoxicity Assay to monitor cytotoxicity in HepG2 cells - 40 hour (AID 1224879); note: nearly all actives have a fitted effect of over 40% in size
# In short: (§1)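 Real-time, homogeneous cytotoxicity readout: dead-cell DNA staining by CellTox Green in HepG2 monolayers, fluorescence measured at timed intervals up to 40 h of continuous compound exposure.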
# [4] = qHTS RealTime-Glo MT Cell Viability Assay in HepG2 cells - 32 hour (AID 1224877); note: nearly all actives have a fitted effect of over 55% in size
# In short: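 Tox21 10K library screened in qHTS format on HepG2 cells carrying RealTime-Glo reagents. Compounds were added after a 5 h preincubation, and the luminescent signal from continuous culture was measured repeatedly during 40 h treatment.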
# [5] = A CellTox Green Cytotoxicity Assay to monitor cytotoxicity in HepG2 cells - 24 hour (AID 1224878); note: nearly all actives have a fitted effect of over 45% in size
# In short: as §1
# [6] = A CellTox Green Cytotoxicity Assay to monitor cytotoxicity in HepG2 cells - 16 hour (AID 1224876); note: nearly all actives have a fitted effect of over 45% in size
# In short: as §1
# [7] = qHTS RealTime-Glo MT Cell Viability Assay in HEK293 cells - 40 hour (AID 1224874); conditions: RealTime-Glo luminescence; max response: stronger effect = lower value; note: nearly all actives have a fitted effect of over 50% in size
# In short: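 Nonlytic bioluminescent viability monitoring. HEK293 at 600 cells/well with reagent; 5 h settle; compound transfer by pintool; plates held at 37 C and read at set time points.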
# [8] = A CellTox Green Cytotoxicity Assay to monitor cytotoxicity in HEK293 cells - 24 hour (AID 1224875); note: nearly all actives have a fitted effect of over 45% in size
# In short: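 Cytotoxicity was tracked continuously in HEK293 cells by a DNA-binding dye excluded from viable cells. Compounds were transferred in DMSO 5 h after seeding; fluorescence was recorded at intervals up to 40 h.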
# Potency is the fitted concentration of half-maximal effect; tags give direction and shape of the fitted curve.
smiles,measurement,setting,value
Nc1ccnc(=O)[nH]1,Potency,[1],inactive
Nc1cccc(S(=O)(=O)O)c1,Potency,[2],inactive
same,Potency,[3],inactive
CC/C=C\CCOC(=O)CCCCC,Potency,[1],"inconclusive [falling, single point]"
CC1=C(C)C(=O)C(CCCCC#CCCCC#CCO)=C(C)C1=O,Potency,[1],"inconclusive [falling, partial curve]"
same,Potency,[4],"inconclusive [cytotoxic, partial curve, poor fit]"
CC(C)(C)C(=O)Oc1ccc(S(=O)(=O)Nc2ccccc2C(=O)NCC(=O)O)cc1,Potency,[1],inactive
same,Potency,[5],inactive
same,Potency,[3],inactive
Cc1cccc(C)c1NC(=O)CN1CCCC1,Potency,[2],inactive
same,Potency,[5],inactive
COc1ccc(C(=O)Nc2nc3ccccc3c(NCc3ccccc3)c2C#N)cc1,Potency,[1],"inconclusive [falling, partial curve]"
same,Potency,[4],"inconclusive [cytotoxic, partial curve]"
CCCCOC(=O)COc1ccc(Cl)cc1Cl,Potency,[1],inactive
same,Potency,[6],inactive
CCCCCOC(=O)c1ccc(O)cc1,Potency,[2],active: 44.2 µM
same,Potency,[3],"inconclusive [activator, single point]"
Cc1cccc(C)c1[N+](=O)[O-],Potency,[7],"inconclusive [rising, full curve, poor fit]"
C=CCOCC(O)CO (configuration not stated),Potency,[1],inactive
same,Potency,[8],"inconclusive [activator, single point]"
same,Potency,[6],"inconclusive [activator, single point]"
same,Potency,[5],"inconclusive [activator, single point]"
same,Potency,[3],"inconclusive [activator, single point]"
OCCOCCN1CCN(C2=Nc3ccccc3Sc3ccccc32)CC1,Potency,[2],"inconclusive [cytotoxic, partial curve] and inactive"
same,Potency,[5],"inconclusive [activator, single point]"
same,Potency,[3],"inconclusive [activator, single point]"
CC(=O)C(C)C,Potency,[1],"inconclusive [falling, single point]"
same,Potency,[7],"inconclusive [cytotoxic, partial curve, poor fit]"
same,Potency,[5],inactive
N#C/C(=C1/SC[C@@H](c2ccc(Cl)cc2Cl)S1)n1ccnc1,Potency,[1],"inconclusive [falling, partial curve, poor fit]"
same,Potency,[3],inactive
O=C1CC2(CCCC2)CC(=O)N1CCNCC1COc2ccccc2O1 (configuration not stated),Potency,[1],inactive
CC1CCN(CCCC(=O)c2ccc(F)cc2)CC1,Potency,[2],inactive
same,Potency,[5],inactive
CCS(=O)(=O)c1ccc(OC)c(C(=O)OC)c1,Potency,[2],inactive
same,Potency,[3],inactive
Cc1cccc(OCC(O)CNC(C)(C)C)c1C (configuration not stated),Potency,[1],inactive
same,Potency,[3],inactive
Cc1ccc(Nc2nccc(N(C)c3ccc4c(C)n(C)nc4c3)n2)cc1S(N)(=O)=O,Potency,[7],active: 1.34 µM
CCCCCOC(C)=O,Potency,[2],inactive
same,Potency,[5],inactive
NC(N)=N/N=C/c1c(Cl)cccc1Cl,Potency,[1],inactive
same,Potency,[5],"inconclusive [activator, single point]"
same,Potency,[3],"inconclusive [activator, single point]"
Cn1nnc2c(C(N)=O)ncn2c1=O,Potency,[1],inactive
Cc1nc2ccc(CN(C)c3ccc(C(=O)N[C@@H](CCC(=O)O)C(=O)O)s3)cc2c(=O)[nH]1,Potency,[6],inactive
CCN1CCCC1CNC(=O)c1cc(S(N)(=O)=O)ccc1OC (configuration not stated),Potency,[3],active: 43.6 µM
CCCCCCCCCCCCCCCCN,Potency,[3],active: 23.9 µM
O=S(=O)(O)NC1CCCCC1,Potency,[8],inactive
Nc1cccc(C(F)(F)F)c1,Potency,[8],"inconclusive [activator, partial curve]"
Nc1ccc(S(=O)(=O)c2ccc(N)cc2)cc1,Potency,[8],inactive
same,Potency,[5],inactive
CCC(C)c1cc(C(C)(C)C)c(O)c(C(C)(C)C)c1 (configuration not stated),Potency,[8],"inconclusive [activator, full curve, poor fit]"
C=C1CC/C=C(\C)CC[C@@H]2[C@@H]1CC2(C)C,Potency,[8],inactive
same,Potency,[3],inactive
N[C@@H](Cc1c[nH]c2ccc(O)cc12)C(=O)O,Potency,[8],inactive
same,Potency,[6],inactive
CCOCCOCCOCCO,Potency,[8],"inconclusive [activator, single point]"
Cc1ccnc2ccccc12,Potency,[8],inactive
same,Potency,[3],inactive
CCCCC(=O)O[C@]1(C(=O)CO)CC[C@H]2[C@@H]3CCC4=CC(=O)CC[C@]4(C)[C@H]3[C@@H](O)C[C@@]21C,Potency,[8],inactive
Cc1ccc2c(c1)OCC(=O)CO2,Potency,[8],inactive
Cc1ncc([N+](=O)[O-])n1C,Potency,[8],"inconclusive [activator, single point]"
same,Potency,[6],"inconclusive [activator, partial curve]"
same,Potency,[5],"inconclusive [activator, partial curve]"
same,Potency,[3],"inconclusive [activator, partial curve]"
O=C(Nc1ccc(Cl)c(Cl)c1)C1CC1,Potency,[8],"inconclusive [activator, single point]"
NCc1ccco1,Potency,[8],"inconclusive [activator, single point]"
same,Potency,[4],inactive
CC(C)(C)c1ccc(OCC2CO2)cc1 (configuration not stated),Potency,[8],"inconclusive [activator, partial curve, poor fit]"
CCOC(OCC)OCC,Potency,[8],inactive
same,Potency,[3],inactive
Cc1ccc(C=O)cc1,Potency,[8],inactive
C=C(C)CS(=O)(=O)O,Potency,[6],inactive
CC1CCCCC1,Potency,[8],inactive
CC(C)CO,Potency,[8],"inconclusive [activator, partial curve, poor fit]"
CCCCNC(=O)NS(=O)(=O)c1ccc(N)cc1,Potency,[8],inactive
CCCCCCCCCC(C)C=O (configuration not stated),Potency,[8],active: 21.9 µM
same,Potency,[3],active: 24.5 µM
O=C(/C=C/c1ccccc1)NCCO,Potency,[8],active: 6.01 µM
same,Potency,[6],active: 9.52 µM
same,Potency,[3],active: 6.01 µM
CNC(=O)N(c1ccccc1)c1ccccc1,Potency,[8],inactive
O=C(CCCl)NCCc1ccccc1,Potency,[8],inactive
same,Potency,[3],inactive
CC1=CC(=O)/C(=C(/C)O)C(=O)O1,Potency,[8],inactive
same,Potency,[3],inactive
Cc1ccc(/C=N/n2c(-c3ccccc3)csc2=S)cc1,Potency,[8],"inconclusive [activator, single point]"
same,Potency,[6],inactive
CCCCCCCCCCCC[N+](C)(C)CC(=O)[O-],Potency,[8],"inconclusive [activator, partial curve, poor fit]"
same,Potency,[6],"inconclusive [activator, single point]"
same,Potency,[5],"inconclusive [activator, single point]"
same,Potency,[3],"inconclusive [activator, single point]"
CC1CCc2cc(F)cc3c(=O)c(C(=O)O)cn1c23 (configuration not stated),Potency,[8],inactive
same,Potency,[3],inactive
C=Cc1ccc(C)cc1,Potency,[8],inactive
C=C(C)c1cccc(C(C)(C)N=C=O)c1,Potency,[8],inactive
same,Potency,[3],inactive
OCC(O)CS (configuration not stated),Potency,[8],inactive
COc1ccc(C(=O)Nc2ccccc2)cc1[N+](=O)[O-],Potency,[8],"inconclusive [activator, single point]"
CCC(=O)c1ccc(O)cc1,Potency,[8],inactive
same,Potency,[3],inactive
CCOC(=O)c1ccc(N(C)C)cc1,Potency,[8],inactive
C=C(C)C(=O)OCC(C)C,Potency,[8],"inconclusive [activator, single point]"
same,Potency,[3],inactive
O=C1c2ccccc2CCc2ccccc21,Potency,[8],"inconclusive [activator, single point]"
Cc1nc(C)c(C)nc1C,Potency,[8],inactive
same,Potency,[3],inactive
Cn1ccnc1,Potency,[8],inactive
Nc1ccccc1S(=O)(=O)O,Potency,[8],inactive
Cc1cc(O)c(Cl)cc1C,Potency,[6],active: 49 µM
same,Potency,[5],active: 49 µM
CC(=O)c1sc(C)nc1C,Potency,[6],"inconclusive [activator, single point]"
C=CCc1cc(OC)c(O)c(C(=O)NCCO)c1,Potency,[6],inactive
same,Potency,[5],inactive
CCCCOC(=O)c1ccccc1C(=O)OCC(CC)CCCC (configuration not stated),Potency,[6],inactive
C=CC[N+]1([C@H]2C[C@H]3[C@@H]4CC[C@H]5C[C@H](OC(C)=O)[C@@H](N6CCCCC6)C[C@]5(C)[C@H]4CC[C@]3(C)[C@H]2OC(=O)CC)CCCCC1,Potency,[6],inactive
O=c1[nH]c2ccccc2c(=O)n1CCCl,Potency,[6],inactive
C=CCOc1ccccc1OCC(O)CNC(C)C (configuration not stated),Potency,[6],inactive
CO[Si](CCCS)(OC)OC,Potency,[6],inactive
Nc1ccc(C(=O)Oc2ccccc2)c(O)c1,Potency,[6],inactive
CCN1CC(CCN2CCOCC2)C(c2ccccc2)(c2ccccc2)C1=O (configuration not stated),Potency,[6],inactive
CCCCNc1cc(C(=O)O)cc(S(N)(=O)=O)c1Oc1ccccc1,Potency,[6],"inconclusive [activator, single point]"
CCO[Si](CCCN=C=O)(OCC)OCC,Potency,[6],inactive
C=C[Si]1(C)O[Si](C)(C=C)O[Si](C)(C=C)O[Si](C)(C=C)O1 (configuration not stated),Potency,[6],"inconclusive [activator, partial curve, poor fit]"
same,Potency,[5],"inconclusive [activator, single point]"
same,Potency,[3],"inconclusive [activator, single point]"
Cl/C(=C\n1cncn1)c1ccc(Cl)cc1Cl,Potency,[6],inactive
same,Potency,[4],inactive
same,Potency,[3],inactive
CNCC[C@@H](Oc1ccccc1C)c1ccccc1,Potency,[6],"inconclusive [activator, partial curve]"
O=S(=O)(O)c1cc(Cl)c(Cl)cc1Cl,Potency,[6],"inconclusive [activator, partial curve, poor fit]"
same,Potency,[5],"inconclusive [activator, partial curve, poor fit]"
CCCCCC/C(C=O)=C\c1ccccc1,Potency,[6],"inconclusive [activator, partial curve, poor fit]"
same,Potency,[4],inactive
same,Potency,[5],"inconclusive [activator, partial curve, poor fit]"
same,Potency,[3],"inconclusive [activator, partial curve, poor fit]"
